# Laboratory results as given in PubChem BioAssay AID686978 (National Center for Advancing Translational Sciences (NCATS), 2013).
# In all, about 420,000 compounds went through this assay and about 64,000 (15%) were called active. The shares of active, inactive and inconclusive entries below differ from those in the screen. Calls follow the shape of the dose curve; as a rule, active = well fitted inhibition curve with a large enough effect; inconclusive = small, poorly fitted or top-dose-only effect; inactive = flat fitted curve, though single readings scatter. No potency is given beside an inconclusive call; the fits are too rough.
# Experiment: qHTS for Inhibitors of human tyrosyl-DNA phosphodiesterase 1 (TDP1): qHTS in cells in absence of CPT; also: nearly all actives have a fitted effect of over 55% in size
# Conditions: DT40 Tdp1-/- hTDP1 cells, no CPT, ATP luminescence, 48 h; activity change, negative = growth inhibition: at 46.2 µM (top of the series)
# Method in brief: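 Camptothecin absent (DMSO only). Human TDP1-complemented DT40 knockout cells, 400 cells/well, 37 °C for minimum 48 hr; ATP measured via CellTiter-Glo, 30 min dark incubation, luminescence.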
# % is scaled to controls: 0 for no effect and ±100 for the full control effect; potency is read from the fitted curve at half-maximal effect; tags tell the direction and shape of the fitted curve.
SMILES,"activity change, negative = growth inhibition",Potency
O=C(OCCOc1ccccc1)c1n[nH]c2ccccc12,inactive: -9.99%,–
CC(C)(C)c1ccc(CC(=O)N2CCC2(C)C(=O)NCc2ccc3c(c2)OCO3)cc1 (centres undefined),–,"inconclusive [inhibitor, single point]"
COC(=O)c1cc(NC(=O)CC2C(=O)NCCN2C(=O)c2ccccc2)cc(C(=O)OC)c1 (centres undefined),–,"inconclusive [inhibitor, single point]"
CCn1c(=O)cc(SCC(=O)Nc2cc(OC)c(OC)c(OC)c2)c2ccccc21,–,"inconclusive [inhibitor, single point]"
CCc1nnc(NC(=O)c2cccc(S(=O)(=O)N3CCN(C(C)=O)CC3)c2)s1,inactive: 0.599%,–
Cn1c(=O)c2c(nc(SCC(=O)Nc3ccc(OC(F)(F)F)cc3)n2Cc2cccc(C(F)(F)F)c2)n(C)c1=O,–,active: 8.2 µM
Cc1ccc(NC(=O)C2CC(=O)N(Cc3ccccc3)C2)nc1 (centres undefined),inactive: -1.66%,–
O=C(C1Cc2ccccc2CN1S(=O)(=O)c1ccc(F)cc1)N1CCCCC1 (centres undefined),–,"inconclusive [inhibitor, partial curve]"
COc1ccc(Cn2c(=O)c3c(nc(NCCO)n3C)n(C)c2=O)cc1,inactive: -8.43%,–
N#Cc1ccc(-c2ccc(OCC(O)CN3CCCCC3)cc2)cc1 (centres undefined),–,"inconclusive [inhibitor, single point]"
Cc1ccc(-c2cnc(C(O)c3cc(Cl)cc(Cl)c3)[nH]2)cc1 (centres undefined),–,"inconclusive [inhibitor, partial curve, poor fit]"
CCCCC(CC)C(=O)Nc1cc(C(=O)NCCC)ccc1N1CCC2(CC1)CC(c1cccc(Br)c1)=NO2 (centres undefined),inactive: -20.6%,–
CC(C)CNC(=O)c1ccccc1NC(=O)CCSc1ccccc1,–,"inconclusive [inhibitor, single point]"
COc1ccc(N2CCN(C(CNC(=O)C3CCCCC3)c3cccnc3)CC2)cc1 (centres undefined),inactive: -27.2%,–
CC(=O)c1ccc(NC(=O)c2ccc3nc(C)sc3c2)cc1,inconclusive: -31.4% [inhibitor],–
Cc1noc(C)c1S(=O)(=O)N1CCCCC1,inactive: 15.8%,–
O=S(=O)(c1ccc(=S)[nH]c1)N1CCCCCC1,–,"inconclusive [inhibitor, single point]"
COc1ccc(S(=O)(=O)N(CCc2ccccc2)CC(=O)N/N=C/c2ccc3c(c2)OCO3)cc1,–,"inconclusive [inhibitor, single point]"
COC(CN(C(=O)CCl)C(C(=O)NC1CCCCC1)c1ccc(C)cc1)OC (centres undefined),–,active: 13 µM
O=C1c2ccccc2S(=O)(=O)N1CC1CC(c2ccc(Cl)cc2)=NO1 (centres undefined),–,"inconclusive [inhibitor, single point]"
O=C(Nc1ccc(N2CCOCC2)cc1)c1ccc(S(=O)(=O)NCc2ccco2)cc1,inactive: 0.312%,–
O=S1(=O)N=C2CCCCCN2C(c2ccccc2)N1 (centres undefined),inactive: -2.43%,–
COc1ccc(N2CCN(c3nc4ccccc4n3CC(=O)c3ccccc3)CC2)cc1,–,"inconclusive [inhibitor, partial curve]"

SMILES,"activity change, negative = growth inhibition",Potency
COc1ccc(N(CCOc2ccccc2)S(=O)(=O)c2ccccc2)cc1,–,active: 16.4 µM
Cc1ccc(S(=O)(=O)Nc2cc3c(cc2C)n(C)c(=O)c(=O)n3C)cc1,–,"inconclusive [inhibitor, single point]"
Nc1ccn([C@@H]2O[C@H](CO)[C@@H](O)[C@@H]2O)c(=O)n1,–,active: 0.164 µM
Cc1ccccc1-n1nnnc1SC(C)C(=O)Nc1ccc(N2CCN(C)CC2)cc1 (centres undefined),–,"inconclusive [inhibitor, single point]"
Cc1ccc(-c2nc(C(=O)NCCCN3CCOCC3)cc3c2[nH]c2ccccc23)cc1,–,active: 3.26 µM
Cn1nc(C(=O)NCc2ccccc2)c2c1-c1ccccc1SC2,–,"inconclusive [inhibitor, single point]"
CCOC(=O)c1sc2ccccc2c1S(=O)(=O)Nc1c(C)cccc1C,–,"inconclusive [inhibitor, single point]"
Cc1cc(NC(=O)N2CC=C(c3c[nH]c4ccccc34)CC2)ccc1Br,–,"inconclusive [inhibitor, single point]"
O=C(Cn1c(=O)n(-c2ccc(F)cc2)c(=O)c2sc3ccccc3c21)N1CCCC1,inactive: -20.1%,–
CC(=O)N1N=C(c2c(-c3ccccc3)c3cc(Br)ccc3[nH]c2=O)CC1c1ccco1 (centres undefined),–,"inconclusive [inhibitor, single point]"
C/C(=N/OCC(=O)Nc1ccc(C)cc1C)c1cccs1,–,"inconclusive [inhibitor, single point]"
O=c1[nH][nH]c(-c2ccccc2O)c1C(C[N+](=O)[O-])c1cccc(Cl)c1 (centres undefined),–,"inconclusive [inhibitor, single point]"
Cc1[nH][nH]c(=O)c1C(c1ccc(-c2ccc(F)cc2)o1)c1c(C)[nH][nH]c1=O,–,"inconclusive [inhibitor, single point]"
Cc1ccc(-c2onc(C)c2C)cc1S(=O)(=O)N1CCCCC1,–,"inconclusive [inhibitor, single point]"
O=c1nc(Nc2ccccc2)oc2ccccc12,inactive: -24.1%,–
Cc1noc(C)c1NC(=O)N(C)C[C@H]1Oc2ccc(NC(=O)Cn3cnnn3)cc2C(=O)N([C@H](C)CO)C[C@@H]1C,inactive: -16.9%,–
Cc1ccc(NC(=S)N2CCC(NC(=O)c3ccc(F)cc3)CC2)cc1C,inactive: -27%,–
Cn1c(=O)c([N+](=O)[O-])c(NCc2ccccc2Cl)c2ccccc21,–,"inconclusive [inhibitor, single point]"
COc1ccc(CCC(=O)NC2CCCN(Cc3ccc(Cl)cc3)C2)cc1OC (centres undefined),–,"inconclusive [inhibitor, partial curve]"
COc1cccc(CNC(=O)Cn2cc3c(n2)-c2c(oc(C(=O)N4CCCC4)c2C)CC3)c1OC,–,"inconclusive [inhibitor, single point]"
CC(C)(CNCc1ccccc1)NS(=O)(=O)c1ccc(Cl)cc1,–,"inconclusive [inhibitor, partial curve]"
CCc1ccc(/C(C)=N\Nc2ccc([N+](=O)[O-])cc2)cc1,–,"inconclusive [inhibitor, single point]"
CC(C)NS(=O)(=O)c1ccc(Br)c(C(=O)OC(C)C(=O)NC2CCCCC2C)c1 (centres undefined),–,"inconclusive [inhibitor, single point]"

SMILES,"activity change, negative = growth inhibition",Potency
O=C(NCCc1ccccc1)c1ccc(NC(=O)C2CC2)cc1,–,"inconclusive [inhibitor, single point]"
Cc1cccc(N2CCN(S(=O)(=O)c3ccc(-c4cc(C)no4)s3)CC2C)c1 (centres undefined),inactive: 21.2%,–
COC(=O)C1=C(CSCc2ccccc2)NC(=O)NC1c1cc(C)ccc1C (centres undefined),–,"inconclusive [inhibitor, single point]"
CCSc1ccccc1C(=O)NCCc1ccccc1,–,"inconclusive [inhibitor, partial curve]"
Cc1ccc(-c2nnn(CC(=O)N(Cc3ccco3)C(C(=O)NC3CCCC3)c3cccs3)n2)o1 (centres undefined),–,"inconclusive [inhibitor, partial curve]"
Cc1cc(C)n2nc(SCC(=O)c3c(N)n(CC(C)C)c(=O)n(C)c3=O)nc2n1,–,"inconclusive [inhibitor, full curve, poor fit]"
Cc1cc(NC(=O)CSc2nnc(N)s2)c([N+](=O)[O-])cc1C,inactive: -8.24%,–
COc1ccc(-n2nc(C(=O)N3CCC(C)CC3)c3c4ccccc4n(C)c3c2=O)cc1Cl,–,"inconclusive [inhibitor, partial curve]"
Cc1noc(NS(=O)(=O)c2ccc(NC(=O)c3oc4ccc(Cl)cc4c3C)cc2)c1C,inactive: -25.1%,–
COCc1cc(=O)[nH]c(/N=C(\N)Nc2cccc(C)c2)n1,inactive: 1.03%,–
CC(C)c1ccc(NC(=O)Nc2nc(CN)cs2)cc1,–,"inconclusive [inhibitor, single point]"
CC(=NNC(=O)Cn1ccc(C(F)(F)F)n1)c1ccc(-n2ccnc2)cc1,–,"inconclusive [inhibitor, single point]"
CN(CCn1ccnc1)Cc1cn(-c2ccccc2)nc1-c1ccc2c(c1)OCO2,inactive: -13.8%,–
COc1ccc(NC(=O)c2cc(C3CCCCN3S(=O)(=O)c3c(C)noc3C)on2)c(C)c1 (centres undefined),–,"inconclusive [inhibitor, single point]"
CCCc1noc(-c2ccc(N3CCCCC3)c([N+](=O)[O-])c2)n1,–,"inconclusive [inhibitor, partial curve, poor fit]"
Cc1ccc(-c2csc(N(Cc3ccccc3)C(=O)COc3ccccc3)n2)cc1,–,"inconclusive [inhibitor, single point]"
CC(C)Cn1cc(C(=O)NCCCOC(C)C)c2c3ccccc3n(C)c2c1=O,inactive: -28.8%,–
CC(C)(C)c1ccc(OCCCNCc2ccccc2)cc1,–,"inconclusive [inhibitor, single point]"
COC(=O)N/N=C/c1cc(N=Nc2ccccc2)ccc1O,–,"inconclusive [inhibitor, single point]"
CC(C)CC(=O)NC(c1ccccc1Cl)c1c(O)ccc2ccccc12 (centres undefined),inactive: -112%,–
CCn1c(SCC(=O)Nc2cc(C)on2)nc2c(c1=O)SC(C)C2 (centres undefined),–,"inconclusive [inhibitor, single point]"
COc1ccccc1NC(=O)CSc1nnc2ccc(-c3ccccn3)nn12,inactive: -9.06%,–
CN(C)S(=O)(=O)N(CC(=O)NCCSCc1ccccc1Cl)c1ccccc1,–,"inconclusive [inhibitor, single point]"
